In the RNAGym collection of RNA variant scans (doi:10.1093/nar/gkz1192):
Read counts are not given, so values of variants with three or more changes are uncertain.

B1: CPEB3 Ribozyme (parent)
chain: UAACAGGGGGCCACAGCAGAAGCGUUCACGUCGCAGCCCCUGUCAGAUUCUGGUGAAUCUGCGAAUUCUGCUGUAUAUCUC

Variants of: B1
Assay: self-cleavage, relative activity (ratio to wild type); higher = more cleavage; in vitro, sequencing
How it was run: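 Relative activity was defined as the cleaved/total read fraction for a variant divided by the same fraction for the unmutated ribozyme. CPEB3 self-cleaving ribozyme libraries were made by rounds of error-prone PCR, barcoded, and transcribed in vitro with T7 RNA polymerase for 5 hours at 37°C, and cleavage ran through transcription plus a 15 min DNase I step before EDTA. Illumina sequencing of template-switched reverse transcripts gave the reads, and DNA sequencing mapped the barcodes. Averages come from three batches, using variants with at least 5 reads.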
In the case of U51C U60C C62U, the self-cleavage is reported as 0.24.
For U51C U60C G63U, the self-cleavage was 0.39.
Variant U51C U66C U72A has a self-cleavage of 0.37.
For U51C U66C U72C U76A, the self-cleavage was 0.61.
In the case of U51C U67C U78A, the self-cleavage is reported as 0.41.
U51C U69A U78C gave a self-cleavage of 0.92.
U51C U72C U76G showed a self-cleavage of 1.18.
U51C U74G U80C gave a self-cleavage of 1.26.
U51G A56U A57G A64G gave a self-cleavage of 0.17.
U51G A56U U72C U78C gave a self-cleavage of 0.49.
For U51G A64U U76A A77G, the self-cleavage was 0.22.
U51G U54C U67C gave a self-cleavage of 0.22.
Work on U51G U60A U80A yielded a self-cleavage of 0.67.
Variant U51G U60C U74A has a self-cleavage of 0.54.
U51G U67C U80A gave a self-cleavage of 0.16.
In the case of U51G U76C U78C, the self-cleavage is reported as 1.04.
In the case of G52A A56G A64G A75G, the self-cleavage is reported as 0.6.
For G52A A65G U67C C71U, the self-cleavage was 0.06.
Variant G52A U69C U80A has a self-cleavage of 0.71.
Variant G52A U76C A77G has a self-cleavage of 1.17.
G52C A56G U58C U60A gave a self-cleavage of 0.3.
For G52C A56U G63A, the self-cleavage was 0.87.
G52C A57G U78C showed a self-cleavage of 1.11.
With G52C A65G U72A the self-cleavage was 0.6.
With G52C U54C U60C the self-cleavage was 0.51.
For G52C U54C U72C, the self-cleavage was 1.15.
G52C U58C U72C showed a self-cleavage of 0.63.
G52C U60C U76A A77G gave a self-cleavage of 0.3.
In the case of G52U A56U A64G, the self-cleavage is reported as 0.76.
G52U A57G U72A U74C showed a self-cleavage of 1.28.
With G52U G53C U54C A56C the self-cleavage was 0.9.
For G52U U60C U72C A75G, the self-cleavage was 0.49.
Work on G52U U69C U80C yielded a self-cleavage of 0.5.
Variant G53A A57G U69C U72C A77U U80C has a self-cleavage of 0.47.
G53A A65G U80C gave a self-cleavage of 0.46.
For G53A U58A C81A, the self-cleavage was 0.36.
In the case of G53A U60C G63A, the self-cleavage is reported as 0.75.
Work on G53A U60C U78C yielded a self-cleavage of 0.85.
G53A U74C A75U gave a self-cleavage of 1.22.
G53C A64G U69C gave a self-cleavage of 0.19.
For G53C A64G U76A, the self-cleavage was 1.12.
In the case of G53C U60C U78C, the self-cleavage is reported as 0.66.
For G53C U67C U72C, the self-cleavage was 0.47.
Variant G53C U72A U74C has a self-cleavage of 1.19.
In the case of G53U A56G U60C, the self-cleavage is reported as 0.88.
For G53U U54C C62U, the self-cleavage was 0.16.
With G53U U60C G63A the self-cleavage was 0.56.
With U54A A56G A75G the self-cleavage was 0.65.
In the case of U54A A56G A77U, the self-cleavage is reported as 0.9.
For U54A A56G U60A, the self-cleavage was 0.59.
For U54A A56U A77U, the self-cleavage was 0.99.
With U54A A56U U76A the self-cleavage was 0.6.
U54A A57G U69A gave a self-cleavage of 0.45.
For U54A A65G U66A, the self-cleavage was 0.19.
Work on U54A A65G U72A yielded a self-cleavage of 0.42.
Variant U54A A65U U80C has a self-cleavage of 0.18.
Work on U54A C71U U78C yielded a self-cleavage of 0.7.
U54A G61C A64G U72C showed a self-cleavage of 0.18.
U54A G61U C62G U67C showed a self-cleavage of 0.61.
For U54A U58C C71U A75U U78C, the self-cleavage was 0.59.
Work on U54A U58C U66C U69C U74G yielded a self-cleavage of 0.36.
U54A U60C A64C showed a self-cleavage of 0.19.
U54A U66A U80C gave a self-cleavage of 0.63.
Work on U54A U66C C71A U78C yielded a self-cleavage of 0.46.
With U54A U66C G73A the self-cleavage was 1.14.
For U54A U66C U72A, the self-cleavage was 0.78.
U54A U67C U74C showed a self-cleavage of 0.51.
U54A U69A A75U showed a self-cleavage of 0.57.
Variant U54C A56C A64G has a self-cleavage of 0.11.
U54C A56C U76C showed a self-cleavage of 0.45.
For U54C A56G A57G U78C, the self-cleavage was 0.18.
U54C A56G U76A A77G gave a self-cleavage of 0.39.
Work on U54C A56U U76C U80C yielded a self-cleavage of 0.58.
Work on U54C A57G U66C yielded a self-cleavage of 0.13.
Variant U54C A57G U67A has a self-cleavage of 0.29.
Work on U54C A57G U72A yielded a self-cleavage of 0.69.
Variant U54C A57G U72C has a self-cleavage of 0.81.
For U54C A57U C62U A64U A77U, the self-cleavage was 0.05.
With U54C A57U U60C U69C the self-cleavage was 0.18.
In the case of U54C A64G A77G, the self-cleavage is reported as 0.59.
For U54C A64G G73A, the self-cleavage was 1.29.
Work on U54C A64U U66C yielded a self-cleavage of 0.25.
With U54C A64U U72C the self-cleavage was 0.42.
U54C A65G C68G U78C showed a self-cleavage of 0.2.
In the case of U54C A65G U67C, the self-cleavage is reported as 0.31.
U54C A65G U74C A77U gave a self-cleavage of 0.77.
U54C A65U C68U gave a self-cleavage of 0.18.
In the case of U54C A65U C71U, the self-cleavage is reported as 0.18.
In the case of U54C A75U U78A, the self-cleavage is reported as 0.88.
In the case of U54C A77U U78C U80A, the self-cleavage is reported as 1.2.
For U54C C62A A64G, the self-cleavage was 0.6.
For U54C C62A U80A, the self-cleavage was 0.16.
U54C C68A C71G showed a self-cleavage of 0.15.
Work on U54C C68A U69A yielded a self-cleavage of 0.26.
In the case of U54C C68A U80C, the self-cleavage is reported as 0.41.
U54C G63C C71G U72C U80C showed a self-cleavage of 0.22.
U54C U58A A64G A77G showed a self-cleavage of 0.19.
For U54C U58A A65G U69A, the self-cleavage was 0.17.
In the case of U54C U58A U74A, the self-cleavage is reported as 0.5.
U54C U58C C59A C68A showed a self-cleavage of 0.3.
U54C U58C U67C U80C showed a self-cleavage of 0.42.
Work on U54C U58C U72A yielded a self-cleavage of 0.17.
U54C U60A A65G U80C showed a self-cleavage of 0.3.
In the case of U54C U60A C62U, the self-cleavage is reported as 0.48.
For U54C U60A U69C A75C, the self-cleavage was 0.19.
With U54C U60C C79A the self-cleavage was 0.78.
Variant U54C U60C U72C has a self-cleavage of 0.3.
With U54C U60C U78C the self-cleavage was 0.35.
U54C U60G U74A U78A showed a self-cleavage of 0.71.
In the case of U54C U60G U76C, the self-cleavage is reported as 0.32.
Variant U54C U66C G70A U78C has a self-cleavage of 0.2.
With U54C U66C U74C A77G the self-cleavage was 0.33.
U54C U67A A77U gave a self-cleavage of 0.52.
U54C U67C G73A U78C showed a self-cleavage of 0.13.
U54C U67C U72C A75G showed a self-cleavage of 0.18.
With U54C U69C U72C U80A the self-cleavage was 0.48.
Work on U54C U69C U80A yielded a self-cleavage of 0.82.
Work on U54C U74A A77G yielded a self-cleavage of 1.35.
U54C U76C A77G showed a self-cleavage of 0.97.
Work on U54C U78C U80C yielded a self-cleavage of 0.75.
Work on U54G A56G A77G U78G yielded a self-cleavage of 0.79.
U54G A57G U80C showed a self-cleavage of 0.54.
In the case of U54G A65G C71U U72C, the self-cleavage is reported as 0.33.
With U54G G61A A64U the self-cleavage was 0.41.
In the case of U54G U58A U60A, the self-cleavage is reported as 0.17.
Variant U54G U58A U60A U69A U74C has a self-cleavage of 0.2.
Variant U54G U58C U67C C68U U74C has a self-cleavage of 0.14.
U54G U60C A77G showed a self-cleavage of 0.4.
U54G U60C U67C U69C A77U gave a self-cleavage of 0.34.
Work on U54G U60C U69C U72C A77U yielded a self-cleavage of 0.4.
Variant U54G U66C U72C has a self-cleavage of 0.37.
With U54G U67C U74A the self-cleavage was 0.32.
In the case of U54G U69A U78C, the self-cleavage is reported as 0.39.
Work on U54G U72A U74A yielded a self-cleavage of 0.71.
With G55A A57G U67A U69C the self-cleavage was 0.18.
Variant G55A A57G U72C has a self-cleavage of 0.91.
Work on G55A A57U A64G yielded a self-cleavage of 0.31.
With G55A A77G U78A the self-cleavage was 0.46.
G55A C59U U67C gave a self-cleavage of 0.15.
In the case of G55A C62U U66C C79A, the self-cleavage is reported as 0.17.
With G55C U60C U72C U74A A75G the self-cleavage was 0.24.
A56C A65C U78C showed a self-cleavage of 0.06.
Work on A56G A57G C71A U72A yielded a self-cleavage of 0.2.
In the case of A56G A57G U72C U74A, the self-cleavage is reported as 0.62.
With A56G A64G A77U the self-cleavage was 0.72.
For A56G A64G U66A, the self-cleavage was 0.21.
Variant A56G A65G U72G U78A has a self-cleavage of 0.48.
For A56G A65G U78C, the self-cleavage was 0.31.
In the case of A56G C59A U78C, the self-cleavage is reported as 0.09.
With A56G C59U A64G the self-cleavage was 0.37.
In the case of A56G C62G A64U A77U, the self-cleavage is reported as 0.53.
A56G G63C U72C showed a self-cleavage of 1.17.
With A56G G63U U67A U72C the self-cleavage was 0.46.
A56G U58C U67C G73A gave a self-cleavage of 0.16.
Work on A56G U58C U80A yielded a self-cleavage of 0.53.
For A56G U60A A65G, the self-cleavage was 0.24.
With A56G U60A U72C the self-cleavage was 0.29.
A56G U60C A77G showed a self-cleavage of 0.31.
For A56G U60C U66C G70U, the self-cleavage was 0.21.
For A56G U60C U67C, the self-cleavage was 0.07.
For A56G U66C U78C, the self-cleavage was 0.19.
In the case of A56G U67C U72C, the self-cleavage is reported as 0.33.
With A56G U67C U78C the self-cleavage was 0.39.
For A56G U69A U72A U78C, the self-cleavage was 0.79.
A56G U69G U80C showed a self-cleavage of 0.69.
For A56G U74C C79A U80C, the self-cleavage was 0.86.
Work on A56G U76C U80A yielded a self-cleavage of 1.1.
